Screen size: about 310,000 compounds; about 2,200 (0.71%) showed an effect of 50% or more. Effects have a minus sign here. The list shows a part of the results.
These molecules were tested against human ether-à-go-go-related gene (hERG) potassium channel (human, UniProt Q12809) (assay: primary screen, population patch clamp on CHO cells stably expressing hERG).
Chain of human ether-à-go-go-related gene (hERG) potassium channel (Q12809 whole entry, looked up): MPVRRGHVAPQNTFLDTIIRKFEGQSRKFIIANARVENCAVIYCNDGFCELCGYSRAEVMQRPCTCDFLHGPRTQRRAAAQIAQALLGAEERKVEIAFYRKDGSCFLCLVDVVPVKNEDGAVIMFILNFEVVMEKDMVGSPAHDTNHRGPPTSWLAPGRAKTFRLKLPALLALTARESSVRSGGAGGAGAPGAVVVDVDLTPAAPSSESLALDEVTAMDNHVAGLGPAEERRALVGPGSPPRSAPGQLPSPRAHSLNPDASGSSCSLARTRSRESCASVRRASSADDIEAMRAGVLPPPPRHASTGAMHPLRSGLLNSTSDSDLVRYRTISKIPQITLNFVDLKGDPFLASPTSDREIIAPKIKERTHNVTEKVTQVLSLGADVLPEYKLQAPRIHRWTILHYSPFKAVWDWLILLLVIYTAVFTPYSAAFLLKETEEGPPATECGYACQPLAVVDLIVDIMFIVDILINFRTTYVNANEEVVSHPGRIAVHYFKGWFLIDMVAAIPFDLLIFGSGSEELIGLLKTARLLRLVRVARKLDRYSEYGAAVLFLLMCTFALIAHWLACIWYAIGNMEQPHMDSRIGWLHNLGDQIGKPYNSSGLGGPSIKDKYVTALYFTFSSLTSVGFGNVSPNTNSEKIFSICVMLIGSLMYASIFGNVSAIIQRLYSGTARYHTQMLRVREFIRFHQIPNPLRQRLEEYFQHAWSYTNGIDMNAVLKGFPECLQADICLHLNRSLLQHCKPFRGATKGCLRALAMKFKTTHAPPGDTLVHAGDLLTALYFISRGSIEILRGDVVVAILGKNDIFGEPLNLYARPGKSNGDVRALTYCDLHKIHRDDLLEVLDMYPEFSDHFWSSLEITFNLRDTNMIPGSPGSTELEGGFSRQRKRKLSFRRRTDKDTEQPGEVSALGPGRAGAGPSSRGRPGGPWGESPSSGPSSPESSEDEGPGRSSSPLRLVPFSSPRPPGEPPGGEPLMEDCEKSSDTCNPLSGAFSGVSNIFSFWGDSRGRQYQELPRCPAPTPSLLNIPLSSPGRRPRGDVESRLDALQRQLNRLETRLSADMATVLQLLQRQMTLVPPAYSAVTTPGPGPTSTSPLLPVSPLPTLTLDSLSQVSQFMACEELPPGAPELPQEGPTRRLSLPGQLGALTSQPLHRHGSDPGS

Compound	hERG current change (%, negative = inhibition) at 1uM
COc1ccc(-n2nc(C(=O)NCC(=O)NCCN(C)C)c3ccccc3c2=O)cc1	13%
CC1(C)Cc2c(cnn2-c2ccc(F)cc2)C(NC(=O)CCC(F)(F)F)C1 (stereo not drawn)	-6.85%
O=C(NC1CC1)c1cccc(Oc2ccccc2)c1	9.68%
CCCCN1C(=O)NC(NC(C)=O)(C(F)(F)F)C1=O (stereo not drawn)	12.5%
C=CCOC(=O)C1=C[C@H](c2cn(C(C)=O)c3ccccc23)C[C@H](OCCCCO)O1	-0.762%
COc1cc2c(cc1NC(=O)COC(=O)[C@@H](NS(=O)(=O)c1ccccc1)C(C)C)oc1ccccc12	11%
COc1ccccc1CN1CCN(Cc2nc(Cc3ccccc3)no2)CC1	-1.92%
O=C(CSc1nc(-c2ccco2)cc(C(F)(F)F)n1)Nc1ccc2c(c1)CCC2	-5.73%
CN1CCN(CCN2CCn3c2nc2ccccc23)CC1.Cl	5.64%
CCCCCn1cnnc1SCC(=O)c1ccc2c(c1)OCO2	0.674%
COc1cc2c(cc1OC)CN(C(=O)C(CCSC)NS(=O)(=O)c1ccc(C)cc1)CC2 (stereo not drawn)	11%
Cc1ccccc1NCC(=O)c1ccc(Br)cc1	3.96%
C=C(C)CNC(=S)NNC(=O)c1ccco1	18.9%
COc1ccc2c(c1)C(=O)N1[C@H]3c4cc(C)ccc4OC[C@@H]3[C@H](c3ccccc3)[C@]1(C)C(=O)N2	7.91%
COc1ccc(CNC(=O)C2CC(C)=C(C)CC2C(=O)O)cc1OC (stereo not drawn)	19.5%
Fc1cccc2sc(Nc3nnc(-c4ccco4)o3)nc12	30.5%
Cc1cc(C)c2nc(-c3cccnc3)cc(C(=O)Nc3ccc(S(=O)(=O)Nc4onc(C)c4C)cc3)c2c1	8.82%
O=C(O)CCCCCCCC(=O)O	14.6%
O=C(c1ccccc1)c1cccc(NC(=O)c2ccco2)c1	1.67%
N#Cc1nc(-c2cccs2)oc1NCc1ccco1	6.98%
COC(=O)[C@@H]1CCCN1C(=O)c1cc(COc2cccc3cccnc23)on1	9.43%
Cc1cc(C)n(-c2ccc(C(=O)OCC(=O)c3c(N)n(C)c(=O)n(C)c3=O)cc2)n1	-1.25%

Compound	hERG current change (%, negative = inhibition) at 1uM
Cc1nonc1C1CCCN1C(=O)c1cc(COc2ccc(F)cc2F)on1 (stereo not drawn)	8.83%
Cc1cccc(C2c3[nH]c4ccccc4c3CCN2C(=O)Cc2n[nH]c(C)n2)n1 (stereo not drawn)	13.8%
O=C(O)c1nn(CCOc2ccc(Cl)cc2Cl)c(=O)c2ccccc12	20.5%
O=C(Cc1nn[nH]n1)NCCC1=CCCCC1	12.9%
N/N=C(\c1ccccc1)C12CN3CN(CN(C3)C1)C2	16%
Cc1cc(C(=O)OCc2nc3ccccc3s2)c(C)o1	1.87%
CC1(C)CC(C(CC(=O)O)c2ccccc2)CCO1 (stereo not drawn)	21.2%
NS(=O)(=O)c1ccc(CNC(=O)/C=C/c2ccccc2)cc1	12.7%
CCOc1ccc(CN2CCN(CC(O)Cn3c4ccccc4c4ccccc43)CC2)cc1 (stereo not drawn)	3.32%
NC(=O)N1CCC2(CC1)NC(=O)N(c1ccccc1)N2	9.56%
CC1SCC(NC(=O)c2ccc(Cl)cc2)CS1 (stereo not drawn)	2.14%
CC1(C)C(=O)OC(c2cccn2-c2ccc([N+](=O)[O-])cc2)C2(CCCCC2)C1=O (stereo not drawn)	12.7%
Cl.NS(=O)(=O)c1cccc(NC(=O)c2cc(-c3cccs3)nc3ccccc23)c1	11.7%
CCC(=O)Oc1ccc2ccccc2c1CNC(=O)c1ccccc1	3.78%
O=C(NC1CCCCC1)C(c1ccc2ncccc2c1)N(Cc1ccccc1)C(=O)c1ccc2c(c1)OCCO2 (stereo not drawn)	11.2%
CN1C(=O)[C@H]2[C@@H](/C=C/c3ccccc3)N3C(=O)CN(CCO)C(=O)[C@@]3(Cc3ccccc3)[C@H]2C1=O	5.07%
CCCCN(C(=O)c1c(C)noc1C)c1c(N)n(CCCC)c(=O)[nH]c1=O	13.2%
CC(=O)NCc1ccc(-c2nc3ccccc3s2)cc1	12.7%
CC1=C(C(=O)Nc2cccc(C(=O)N3CCC(C(N)=O)CC3)c2)SCCO1	23%
COc1ccccc1-c1nc2n(n1)C(c1ccccc1Cl)C(C(N)=O)=C(C)N2 (stereo not drawn)	2.61%
CCOC(=O)c1[nH]c2ccccc2c1NC(=O)c1ccc(S(=O)(=O)N(C)C)cc1	6.38%
Cc1nnc(C)n1/N=C/c1cccc([N+](=O)[O-])c1	14.2%

Compound	hERG current change (%, negative = inhibition) at 1uM
COc1ccc(NC(=O)CSc2nc(C)cc(C)n2)cc1	11.2%
COC(=O)c1ccc(-n2nnnc2SCC(=O)Nc2ccccc2F)cc1	14.4%
Clc1ccc(C(CCN2CCCC2)Cc2ccccc2)cc1 (stereo not drawn)	-6.23%
CC(C)(CNC(=O)c1cccc(S(=O)(=O)Nc2ccc(Br)cc2)c1)N1CCOCC1	-1.64%
Cc1ccc(OCCC(=O)OCC(=O)Nc2ccc3c(c2)OCCO3)cc1	-2.11%
COc1ccc(C)cc1S(=O)(=O)N1CCN(c2ccccc2)CC1	14.3%
COc1cc(/C=N/NC(=O)c2ccc(COc3cc(C)ccc3C(C)C)cc2)cc(OC)c1O	7.3%
CCc1cc(C)cc(OCCNC(=O)c2cncc(Br)c2)c1	-3.21%
COCCCNC(=O)Cn1c(=O)n(CCCCCC(=O)NCc2ccc3c(c2)OCO3)c(=O)c2sccc21	-14.2%
Cc1ccc(CN=C(Nc2ccccc2)NC2CCCCC2)cc1	-1.92%
COc1ccc(OC)c(CCNC(=O)c2cccc(NC(=O)C3=C(C)OCCS3)c2)c1	24%
O=C(Cc1cccc(C(F)(F)F)c1)NCC(=O)Nc1cc(Cl)ccc1Cl	6.69%
COC(=O)C(O)(CC(=O)Nc1ccc(Cl)cc1F)C(F)(F)F (stereo not drawn)	15%
CCOc1ccccc1N(CC(=O)NC1CCCC1)C(=O)CCC(=O)Nc1cc(C)on1	10.1%
Cc1ccc(NC2CCCN(C(=O)c3cccc(-c4ncc[nH]4)c3)C2)cc1C (stereo not drawn)	14.4%
CCCC(=O)NC(=S)Nc1cccc(Cl)c1N1CCCC1	9.82%
COc1ccc(N2CCN(S(=O)(=O)c3cn(C)cn3)CC2)cc1	5.72%
COc1ccc2[nH]c(=O)c(CN(CC3CCCO3)C(=S)Nc3ccc(C)cc3)cc2c1 (stereo not drawn)	6.37%
O=C1CN(C(=O)c2cc3ccccc3oc2=O)C(c2ccc(F)cc2)c2cc(Br)ccc2N1 (stereo not drawn)	-4.56%
O=C1NC(=S)N/C1=C\C=C\c1ccccc1	12.7%
Cc1csc(NC(=O)CCCC(=O)O)c1-c1nc2ccccc2s1	17.3%
COC(=O)[C@@H]1C[C@@]2(Br)c3ccccc3N(S(=O)(=O)c3ccccc3)[C@H]2N1C(=O)OC	6.41%

Compound	hERG current change (%, negative = inhibition) at 1uM
COC(=O)c1sccc1S(=O)(=O)Nc1ccc(S(N)(=O)=O)cc1	-16.1%
N#Cc1ccc(-c2nc3ccccc3nc2-c2ccccc2)cc1C#N	19%
CN(C(=O)c1ccccc1OCc1ccc(Cl)cc1)c1ccccc1	9.98%
CCN(CC(=O)Nc1ccc(N2CCOCC2)cc1)Cc1nc2ccccc2c(=O)[nH]1	-3.01%
C=CCc1ccccc1OCCn1ccnc1	11.5%
O=C1Nc2ccccc2/C1=N\c1sc2c(c1C(=O)Nc1ccccc1)CCCC2	-19.9%
Cc1ccc(S(=O)(=O)Cn2nnnc2CN(Cc2ccco2)Cc2cccs2)cc1	12.8%
CC1CCN(C(=O)C2CCN(S(=O)(=O)c3ccc(-n4cnnn4)cc3)CC2)CC1	10.1%
Cc1ccc(-c2nnc(NC(=O)c3ccco3)o2)c(C)c1	11.4%
COC(=O)c1cc(NC(=O)CN2CCOCC2)cc(C(=O)OC)c1	15.5%
COc1ccc(-n2c(C)cc(C(=O)NC3CCCCC3)c2C)cc1	3.46%
CCn1c(CSc2nc(C)cc(C)n2)nnc1SCC(=O)N1CCCc2ccccc21	10.6%
CCc1cc(C(=O)N2CCCC(CCC(=O)N3CCN(c4ccccn4)CC3)C2)no1 (stereo not drawn)	7.82%
CCCNC(=O)c1ccc2c(=O)c(O)c(C)[nH]c2c1	-19.3%
CN(C)S(=O)(=O)c1cccc(C(=O)NCCOC(=O)c2cc(F)c(F)cc2Cl)c1	13.6%
COc1ccccc1N(C)S(=O)(=O)c1ccc(C)c(C(=O)Nc2nccs2)c1	7.41%
Cc1[nH]c(=O)c(C#N)c2c1CCCC2	10.2%
CCOc1ccc(N2C(=O)CC(NC3CCN(C(=O)c4cccs4)CC3)C2=O)cc1 (stereo not drawn)	12.8%
Cc1c(CN(C)Cc2cn(C)nc2-c2ccccc2F)[nH]c2ccccc12	10.7%
CNC(=O)Cn1nc(-c2ccc(Cl)cc2)c2ccccc2c1=O	21.3%
COC(=O)CN(c1cccc(OC)c1)S(C)(=O)=O	14.9%
